# From PMC12136788
# The list shows a part of the results.
# B1: 83126347_83126467_1584_3pUTR_ENSMUSG00000058881_ENSMUST00000071233|mouse|control|control (ssRNA)
# RNA: GGGAGUUCUACAGUCCGACGAUCGGGGGAGCUUGGGUAGCCGGAGCAUCCUGUUCACGCUUGCGUUUUUCCUGGCUCACCAGUAUAUACUCACGCUUGUCUUUGUCAAAGGCUACAUCCCCUGCCAGCGCCUCGUCCCAGGUCCAACAGAGGAUUGAGCAUCA
# B2: 21200532_21200737_1338_CDS_ENSMUSG00000032178_ENSMUST00000067646|mouse|control|control (ssRNA)
# RNA: GGGAGUUCUACAGUCCGACGAUCAGACUUCUCCUCCCCAUCCUCUUCCAUAGGGCGUUUCAUGGGUGUGAUAGCAUAGGUGGUGCUGGGAGGAAUUUGAACAGUGUAGUCCACCGGGUUCUCGUUCUUUGGUUUCUUGGGCAUCAACAGAGGAUUGAGCAUCA
# B3: chr20:44444512:44444513:+_ENSG00000175063_ENST00000356455|hu_hu|motif|central (ssRNA)
# RNA: GGGAGUUCUACAGUCCGACGAUCCAGGUACUUCUUAAAAGCUGUGGGGUUUUUCCAGAGCUCGGCAGCAUGUGUGUUCAAGGGACGGUCAAUGUUGGGUUCUCCUAGAAGGCUCUGGAUGGAGAGCAGAAUGGUCCUGACAUCCAACAGAGGAUUGAGCAUCA
# B4: chr4:52499564:52499565:+_ENSMUSG00000028312_ENSMUST00000117280|mus_hu|FALSE|FALSE (ssRNA)
# RNA: GGGAGUUCUACAGUCCGACGAUCUGUAUAUAAACAAAUUAGUUAUCUCAAGUCCUUAAAAGUUUACAUUUAAAAAAACAGGUCAAGAUGAAGAAAUAACUUUGUAGUUUAAACUUCCACAUGUGCUCCUUUGGGUGGUUUUGCCAACAGAGGAUUGAGCAUCA
# B5: chr2:27445747:27445748:+_ENSG00000084774_ENST00000264705|hu_mus|FALSE|FALSE (ssRNA)
# RNA: GGGAGUUCUACAGUCCGACGAUCAGAGGCAGGGUCACCGGGUCCAUUACUUAGGAAGAGACCGUCAUAUUUCUGACUGUCUAACUCGUGGUCCCAGGGUACCACGGUAACUUCAGCCCCAAGCUGGCAGAGACAUCGGAUCUGCAACAGAGGAUUGAGCAUCA
# B6: 134314381_134319624_517_CDS_ENSG00000130723_ENST00000357304|human|control|control (ssRNA)
# RNA: GGGAGUUCUACAGUCCGACGAUCCGUCGGAAAUUCCUCGGGAGAGAAGGAUAACAGUCGGCUUGAGCCCCUUAAACCACCUUCGUGUCCUACUGGCUUUCCAUUCAGCUGUGCCCAUGACUUUGGUCCACCUGGCACUGAAUUCAACAGAGGAUUGAGCAUCA
# B7: chr13:14287670:14287671:+_ENSMUSG00000039219_ENSMUST00000039538|mus_hu|FALSE|FALSE (ssRNA)
# RNA: GGGAGUUCUACAGUCCGACGAUCAGCAGCACUUUCUCUCUCUUUCUUCUUUAAACGCUUUCUCCUCCGAUCAAUGGAAGCUACUUCAGAUUUUAAUGACAGAUAAUGUUUUCUGAUUUCUUGAAGUUUUUCUUGAAGAAUUGUCAACAGAGGAUUGAGCAUCA
# B8: chr5:31194218:31194219:+_ENSMUSG00000029165_ENSMUST00000031057|mus_hu|FALSE|FALSE (ssRNA)
# RNA: GGGAGUUCUACAGUCCGACGAUCCAGAUCUACACGAAGUCCAUCCAGAGAAUAGCAAAGGAGCUCCCGAUGGUAAUAGAUGGUAUCCAGGGGGCUGCUAUGGGUAGGGUGGUUCUCCGGAAAGCGCUGGUCUAGCUGGUUUAGCAACAGAGGAUUGAGCAUCA
# B9: chr7:133248287:133248288:-_ENSMUSG00000000131_ENSMUST00000171861|mus_hu|FALSE|FALSE (ssRNA)
# RNA: GGGAGUUCUACAGUCCGACGAUCCAUCUUGAAAUUCCGCCCCAGCACACUUUUCUGGUUGGCAUCCACACCAUCACAGCUGGUCAGGAACUCUGGGAGGAAGGCGGCAAAGAAGCCAUCAAAGUCGACUGAGGCCAUGUUGUACAACAGAGGAUUGAGCAUCA
# B10: chr8:95500983:95500984:-_ENSG00000164944_ENST00000437199|hu_hu|hu_hu_hu_mus_True|88_88 (ssRNA)
# RNA: GGGAGUUCUACAGUCCGACGAUCAGAACACAUCUAUCGAGUAAAGGGAGCGUACAUACGGCCUCUACCACUGCCUCCACUAACAAACUUUCCUCUCGAGCCUCCACUGCCGCUAUUUGUACUAGCCCAGGACGGUCCCAGGCCCAACAGAGGAUUGAGCAUCA
# B11: chr5:128448638:128448639:+_ENSG00000066583_ENST00000173527|hu_mus|hu_hu_hu_mus_False|18_18 (ssRNA)
# RNA: GGGAGUUCUACAGUCCGACGAUCGGCACUCGCCUUAAUUAGGUUCUGAAUUUCCUUGAACUUCGGGUGGUCUUUGUCAGCCACCAGCUGUAGGAGGACAGCCUCACUAGUGGUCACUAUGAUCCCGGUGCGGGCAAGACGCUCCAACAGAGGAUUGAGCAUCA
# B12: 112745619_112745739_867_CDS_ENSMUSG00000046441_ENSMUST00000056972|mouse|control|control (ssRNA)
# RNA: GGGAGUUCUACAGUCCGACGAUCGACAGCUUCGCAGUAAUGCAAAGACGACACUAAGGCUUCCUGUUCACCUGGGUUUCCUUGGCAAUCGAAGCUGCCAUCAGCCGUGACCAAGUGAAUGGGAGACAUGCCGCUGAGGAAGUCCAACAGAGGAUUGAGCAUCA
# B13: 11914_12034_1215_CDS_ENSG00000198886_ENST00000361381|human|control|control (ssRNA)
# RNA: GGGAGUUCUACAGUCCGACGAUCUUGUUAAUGUGGUGGGUGAGUGAGCCCCAUUGUGUUGUGGUAAAUAUGUAGAGGGAGUAUAGGGCUGUGACUAGUAUGUUGAGUCCUGUAAGUAGGAGAGUGAUAUUUGAUCAGGAGAACCAACAGAGGAUUGAGCAUCA
# B14: chr8:117878989:117878990:-_ENSG00000164754_ENST00000297338|hu_hu|hu_hu_hu_mus_True|1_38 (ssRNA)
# RNA: GGGAGUUCUACAGUCCGACGAUCCCAGAGGCCCUCGUUUACUGAGGACAAAAUGUGCGUAGAACAUUUUUCUUAUUUGCUAUGAAAUAAGAAGAAAACCUUGCUCUGGCGGGGAGCCGGGAGGGGUGGGUGGCCCGGGGGAGGCAACAGAGGAUUGAGCAUCA
# Target: T1, UNK ZnF1-3 (human, UniProt Q9C0B0 31-174)
# T1 sequence: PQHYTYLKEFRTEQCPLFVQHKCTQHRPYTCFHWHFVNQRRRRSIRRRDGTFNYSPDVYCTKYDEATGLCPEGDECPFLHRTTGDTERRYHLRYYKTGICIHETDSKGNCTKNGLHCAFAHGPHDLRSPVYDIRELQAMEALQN
# Test: nsRBNS (natural sequence RNA bind-n-seq); RBNS binding buffer (assumed for nsRBNS): 25 mM Tris pH 7.5, 150 mM KCl, 3 mM MgCl2, 0.01% Triton X-100, 500 ug/ml BSA, 20 U/ml SUPERase-In, 4 C; UNK is unkempt and MSI1 is Musashi-1; names of the RNAs are library labels; protein concentration not given here; high values mean tight binding
row,Binder,binding signal [enrichment R]
1,B1,0.71
2,B2,0.976
3,B3,0.869
4,B4,1.19
5,B5,1.21
6,B6,1.02
7,B7,1.38
8,B8,1
9,B9,1.62
10,B10,1.57
11,B11,0.54
12,B12,0.556
13,B13,1.79
14,B14,2.3
